These results are taken from PMC4336329 (PLoS ONE, 2015).

Screen size: about 310,000 compounds; about 14,000 (4.5%) showed an effect of 50% or more. Effects have a minus sign here. The list shows a part of the results.
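Note: peak tail current of the secondary pulse compared with the same well before compound.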

human ether-à-go-go-related gene (hERG) potassium channel, sequence (Q12809 whole entry, looked up): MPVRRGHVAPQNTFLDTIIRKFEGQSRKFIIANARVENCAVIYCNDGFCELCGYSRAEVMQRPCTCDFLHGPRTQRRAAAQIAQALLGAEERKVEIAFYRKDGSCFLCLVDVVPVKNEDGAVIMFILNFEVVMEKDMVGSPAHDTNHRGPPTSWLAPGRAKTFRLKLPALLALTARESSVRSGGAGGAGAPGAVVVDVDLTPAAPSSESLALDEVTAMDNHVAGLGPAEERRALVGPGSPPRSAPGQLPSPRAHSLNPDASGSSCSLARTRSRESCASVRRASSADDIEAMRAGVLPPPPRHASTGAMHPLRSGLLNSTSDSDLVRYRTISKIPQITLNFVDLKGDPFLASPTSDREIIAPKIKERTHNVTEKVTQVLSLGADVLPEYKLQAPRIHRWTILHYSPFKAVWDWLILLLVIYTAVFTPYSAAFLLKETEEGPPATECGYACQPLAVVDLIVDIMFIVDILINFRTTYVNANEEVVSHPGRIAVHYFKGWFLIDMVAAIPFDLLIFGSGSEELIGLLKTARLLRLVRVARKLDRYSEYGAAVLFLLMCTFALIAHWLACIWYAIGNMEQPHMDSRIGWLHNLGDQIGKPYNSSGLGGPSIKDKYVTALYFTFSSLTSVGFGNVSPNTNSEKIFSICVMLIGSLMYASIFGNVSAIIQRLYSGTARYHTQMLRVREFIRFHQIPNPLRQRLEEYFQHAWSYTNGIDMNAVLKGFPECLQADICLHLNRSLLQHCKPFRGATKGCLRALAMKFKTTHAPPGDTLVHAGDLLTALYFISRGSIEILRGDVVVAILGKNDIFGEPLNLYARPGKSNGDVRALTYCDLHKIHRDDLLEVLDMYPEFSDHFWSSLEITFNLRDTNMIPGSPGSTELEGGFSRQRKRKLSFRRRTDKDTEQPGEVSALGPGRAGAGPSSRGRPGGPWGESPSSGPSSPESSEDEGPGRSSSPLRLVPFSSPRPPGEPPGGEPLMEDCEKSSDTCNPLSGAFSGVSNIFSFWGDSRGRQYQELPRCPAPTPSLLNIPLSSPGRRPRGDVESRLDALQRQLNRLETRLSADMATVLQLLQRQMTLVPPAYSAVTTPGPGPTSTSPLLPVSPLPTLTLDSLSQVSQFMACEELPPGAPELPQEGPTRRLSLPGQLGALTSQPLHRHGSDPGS

The test concerns the target human ether-à-go-go-related gene (hERG) potassium channel (human, UniProt Q12809). The experiment in a line: primary screen, population patch clamp on CHO cells stably expressing hERG.
For the compound `Cc1cc(OC(C(=O)O)c2ccccc2)c2c(C)c(Cc3ccccc3)c(=O)oc2c1` (stereo not shown), the “hERG current change (%, negative = inhibition) at 10uM” value is -2.59%.

In the case of `COc1cc(C(C)=O)ccc1OC(=O)CN1C(=O)c2ccccc2C1=O`, the “hERG current change (%, negative = inhibition) at 10uM” value came to 14.1%.

On to `C(#Cc1ccccc1)Cn1nnc2ccccc21`, for which the “hERG current change (%, negative = inhibition) at 10uM” value was -10.3%.

With `CCCn1c(Nc2ccc(Cl)cc2)nc2ccccc21`, the “hERG current change (%, negative = inhibition) at 10uM” value is recorded as -0.446%.

As to `O=C(/C=C/c1ccccc1)NCCc1nc2ccccc2[nH]1`, the “hERG current change (%, negative = inhibition) at 10uM” value is -46.9%.

`O=C(O)CCC(NS(=O)(=O)c1ccc(-c2ccccc2)cc1)C(=O)O` (stereo not shown): the “hERG current change (%, negative = inhibition) at 10uM” value is 12.6%.

Turning to `O=C(NN1CCOCC1)c1cc(-c2cccc(Cl)c2)nc2ccccc12`, the “hERG current change (%, negative = inhibition) at 10uM” value was -20.1%.

Take `O=C(NCc1ccccc1)c1ccc(CS(=O)Cc2ccc(Cl)cc2)o1` (stereo not shown): the “hERG current change (%, negative = inhibition) at 10uM” value is listed as -62.5%.

Take `C(#CCN1CCOCC1)COC/C=C/c1ccccc1.Cl`: the “hERG current change (%, negative = inhibition) at 10uM” value was found to be 6.94%.

Take `N#C/C(=C/c1cccs1)c1nc2ccccc2[nH]1`: the “hERG current change (%, negative = inhibition) at 10uM” value came to 14.5%.

`O=C(O)CCn1cc(/C=C/C(=O)c2ccc(Cl)cc2)c(-c2cccc(Br)c2)n1`: the “hERG current change (%, negative = inhibition) at 10uM” value is reported as 8.3%.

For `CCc1ccccc1Nc1nc(N)nc(COC(=O)CCS(=O)(=O)c2ccccc2)n1`, the “hERG current change (%, negative = inhibition) at 10uM” value is reported as -10.5%.

With `Cc1cc2c(c(=O)n1CC1CCCO1)C(c1ccc3c(c1)OCO3)C(C#N)=C(N)O2` (stereo not shown), the “hERG current change (%, negative = inhibition) at 10uM” value is on record as -6.18%.

`O=NN(CCc1ccncc1)c1ccc(OCc2ccccc2)cc1`: the “hERG current change (%, negative = inhibition) at 10uM” value is -65.2%.

As to `COc1ccc(S(=O)(=O)NCCCN2CCCC2=O)c(OC)c1`, the “hERG current change (%, negative = inhibition) at 10uM” value was 10.5%.

With `COC(=O)C1(c2ccccc2)NC(c2cccs2)C2C(=O)N(C)C(=O)C21` (stereo not shown), the “hERG current change (%, negative = inhibition) at 10uM” value is given as -1.15%.

As to `Cc1nn(Cc2c(Cl)cccc2Cl)c(Cl)c1C(=O)O`, the “hERG current change (%, negative = inhibition) at 10uM” value is recorded as 14.4%.

For `CN(C)c1ccc(C(CNS(=O)(=O)c2ccc([N+](=O)[O-])cc2)N2CCOCC2)cc1` (stereo not shown), the “hERG current change (%, negative = inhibition) at 10uM” value was -25.9%.

`C[n+]1ccn(CC(=O)c2cc(C(C)(C)C)c(O)c(C(C)(C)C)c2)c1.[Br-]`: the “hERG current change (%, negative = inhibition) at 10uM” value worked out at 18.2%.

As for `O=[N+]([O-])c1cc(/C=N/Nc2nc(N3CCOCC3)nc(N3CCOCC3)n2)ccc1Cl`, the “hERG current change (%, negative = inhibition) at 10uM” value is given as 16.1%.

Take `O=C(N/N=C/c1cccnc1)c1ccc(CN2c3cccc4cccc(c34)S2(=O)=O)cc1`: the “hERG current change (%, negative = inhibition) at 10uM” value came to 5.22%.

Take `Cc1ccccc1Nc1ncnc2c1cnn2C`: the “hERG current change (%, negative = inhibition) at 10uM” value is reported as 4.92%.

`O=C(Nc1ccc(S(=O)(=O)NC2=NCCCCC2)cc1)C1COc2ccccc2O1` (stereo not shown): the “hERG current change (%, negative = inhibition) at 10uM” value is recorded as -6.86%.

Regarding `CCN(CC)c1nc2n(c(=O)n1)CCN2CC`, the “hERG current change (%, negative = inhibition) at 10uM” value was -1.83%.

`O=C(Nc1ccc(S(=O)(=O)Nc2ncccn2)cc1)c1ccc(Br)s1`: the “hERG current change (%, negative = inhibition) at 10uM” value is given as 2.29%.

With `COc1ccc(-c2cc(C(=O)Nc3cc(Br)ccc3O)no2)cc1`, the “hERG current change (%, negative = inhibition) at 10uM” value came to 12.6%.

As for `COc1cccc(-c2ccc(NC(=O)C3CCCN(Cc4ccc(CO)o4)C3)cc2)c1` (stereo not shown), the “hERG current change (%, negative = inhibition) at 10uM” value is reported as 2.83%.

As for `Cc1cccc(CC(=O)NC2CCS(=O)(=O)C2)c1` (stereo not shown), the “hERG current change (%, negative = inhibition) at 10uM” value is reported as 9.85%.

Turning to `Cc1ccc(NS(=O)(=O)c2cc(-c3cc(C)no3)ccc2C(C)C)nc1`, the “hERG current change (%, negative = inhibition) at 10uM” value is -49%.

On to `Cc1ccc(NC(=O)CN(C)C(=O)COC(=O)CCS(=O)(=O)c2ccc(C)cc2)cc1`, for which the “hERG current change (%, negative = inhibition) at 10uM” value is -25.3%.

For `O=C(Cn1c(-c2cncs2)nc2ccccc21)NCCc1ccccc1`, the “hERG current change (%, negative = inhibition) at 10uM” value is 7.71%.

On to `COc1ccc2c(c1)c1ncn(CC3CCCO3)c(=O)c1n2C` (stereo not shown), for which the “hERG current change (%, negative = inhibition) at 10uM” value is on record as -0.385%.

Consider `CC(=O)c1ccc(-n2nnnc2SCC(=O)N2CCN(C(=O)c3ccco3)CC2)cc1`, for which the “hERG current change (%, negative = inhibition) at 10uM” value is -42.1%.

Consider `CC1(C)OC(=O)N(CCC(=O)Nc2cccc(F)c2)C1(C)O` (stereo not shown), for which the “hERG current change (%, negative = inhibition) at 10uM” value is given as 7.85%.

As for `O=C(CNC(=O)OCc1ccccc1)NC1CCCCCCC1`, the “hERG current change (%, negative = inhibition) at 10uM” value was -2.67%.

As for `COCC1CCCN(C(=O)c2ccc(OC3CCN(Cc4ccccn4)CC3)cc2)C1` (stereo not shown), the “hERG current change (%, negative = inhibition) at 10uM” value was 5.48%.

Take `CC(=O)Nc1cccc(Nc2nc(-c3ccccc3)nc3ccccc23)c1`: the “hERG current change (%, negative = inhibition) at 10uM” value was 28.2%.

As for `CCCn1cc(C(CC(=O)O)C(=O)O)c2ccccc21` (stereo not shown), the “hERG current change (%, negative = inhibition) at 10uM” value is -7.14%.

`O=C(NCCCN1CCOCC1)c1ccc(NS(=O)(=O)c2cccc([N+](=O)[O-])c2)cc1`: the “hERG current change (%, negative = inhibition) at 10uM” value was -24.6%.

Turning to `Br.Cc1ccccc1Cn1c(=N)n(CC(=O)c2ccc([N+](=O)[O-])cc2)c2ccccc21`, the “hERG current change (%, negative = inhibition) at 10uM” value is recorded as -32.6%.

Consider `COc1cc(NC(=O)CSc2nc(=O)n(CCN3CCOCC3)c3c2CCCC3)cc(OC)c1`, for which the “hERG current change (%, negative = inhibition) at 10uM” value is -23.3%.

On to `COc1cc(NC(=O)C(C)N2CCN(C(=O)C3CC3)CC2)cc(OC)c1` (stereo not shown), for which the “hERG current change (%, negative = inhibition) at 10uM” value was -16.1%.

Regarding `CN1CCC(OC(=O)c2ccc(Br)cc2)CC1.Cl`, the “hERG current change (%, negative = inhibition) at 10uM” value is given as -41.9%.
